From PubChem BioAssay AID493208 (National Center for Advancing Translational Sciences (NCATS), 2011)
The campaign covered roughly 44,000 compounds. About 340 (0.77%) were called active. Roughly 5% stayed inconclusive and do not appear here. The call rests on the fitted dose curve; in most records, active means well fitted inhibition curve with a large enough effect; inconclusive means small, poorly fitted or top-dose-only effect; inactive means flat fitted curve, though single readings scatter. Some of the results follow.

test: Acumen qHTS Assay for Inhibitors of the mTORC1 Signaling Pathway in MEF (Tsc2-/-, p53-/-) Cells: Sytravon; conditions: phospho-rpS6 immunofluorescence/PI, 24 h; series mostly up to 38.3 µM; activity change, negative = inhibition: at the top concentration;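 further: plate controls were DMSO for no effect and rapamycin for full effect; nearly all actives have a fitted effect of over 50% in size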
In short: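 Compounds act on Tsc2-/-, p53-/- fibroblasts carrying an empty vector for 24 h before fixation and dual staining for phospho-S6 and DNA (propidium iodide). Values are percentages of cells above a rapamycin-defined pS6/PI threshold.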

Activity change, negative = inhibition, inactive:
Cc1cc(C)cc(NC(=O)CSc2nnc(COc3ccccc3Cl)o2)c1 -0.892%
Cc1ccc(C)c(NC(=O)CCCN2C(=O)COc3ccc(C)cc32)c1 -5.11%
CCN(CC)S(=O)(=O)c1ccc2c(c1)c(=O)c(C(=O)N(C)Cc1ccccc1)cn2C -1%
Cn1cnc2c(=O)oc3ccc(S(=O)(=O)N4CCN(c5ccccc5)CC4)cc3c21 0.212%
CC(C)(C)OC(=O)N1CCC(c2c(C(=O)Nc3cccc(C(F)(F)F)c3)cnn2-c2ccc(F)cc2F)CC1 0.387%
CC(=O)Nc1cc(C(=O)NCc2ccc(F)cc2)ccc1Sc1ccc(C)cc1 6.31%
COc1ccc(C)cc1NC(=O)c1cc2c(s1)-c1ccccc1SC2 -1.13%
CCOC(=O)CC(NC(=O)Cn1nnc(-c2ccc(C(F)(F)F)cc2)n1)c1ccccc1Cl (stereo unspecified) -13.4%
Cc1nn(-c2ccccc2)c(-n2cccc2)c1C(=O)NCc1ccccc1Cl -5.49%
CC1CCN(S(=O)(=O)c2ccc3ncn(CC(=O)Nc4ccccc4C(F)(F)F)c(=O)c3c2)CC1 3.05%
Cc1cc(OCC(=O)Nc2cnn(CCCC(=O)O)c2)ccc1Cl 0.864%
CCOC(=O)C1CCN(C(=O)CSc2n[nH]c(-c3ccccc3Cl)n2)CC1 -15.3%
CN(C)c1ccc(C(CNC(=O)Cc2ccc(Cl)cc2)N2CCOCC2)cc1 (stereo unspecified) 2.45%
CCOc1ccc(CNC(=O)CN2C(=O)CCn3nc(-c4cn(C)c5ccccc45)cc32)cc1OC 6.34%
CCCn1c2ccccc2c2cnn(CC(=O)Nc3cccc(C(=O)OCC)c3)c(=O)c21 -12.2%
CCOc1ccc(NC(=O)CSc2cc(C)c3ccccc3n2)cc1 -2.14%
O=C(NCc1cccs1)c1nn(-c2ccccc2)nc1CO -2.33%
Cc1ccc(NC(=O)Cn2c(=O)n(-c3ccc(C)cc3)c(=O)c3ccc(C(=O)NCc4ccccc4Cl)cc32)cc1 -9.29%
COc1ccc(CCNC(=O)Cc2c(C)c3c(cc(C)c4c(C)c(C)oc43)oc2=O)cc1OC 3.29%
CC(=O)Nc1nonc1-c1nnc(SCc2ccc(F)cc2Cl)n1C -8.49%
Cc1cc(C)cc(NC(=O)c2sc3nc(-c4ccccc4)cn3c2C)c1 -8.54%
COc1ccc(NC(=O)c2cc(-c3ccc4c(c3)OCO4)on2)c(OC)c1 -22.2%
CCOC(=O)c1cccc(NC(=O)CCS(=O)(=O)c2ccc(Br)s2)c1 -7.52%
Cc1ccc(NC(=O)CN2Cc3ccccc3C2=O)c(C)c1 -6.34%
Cn1c(=O)c2c(nc(SCC(=O)Nc3ccc(F)cc3F)n2Cc2ccccc2)n(C)c1=O -15.4%
Cc1c(C)n(Cc2ccc(F)cc2)c2ccc(C(=O)N3CCN(c4ccc(Cl)cc4)CC3)cc12 0.621%
CC1(C(=O)NC2CCCCC2)Cc2ccccc2C(=O)N1Cc1ccc(Cl)cc1 (stereo unspecified) -11%
COc1cccc(C2C(C(=O)Nc3ccc(Cl)cc3)=C(C)Nc3c(C(=O)Nc4ccccc4)cnn32)c1OC (stereo unspecified) -17.8%
CCOC(=O)C1CCN(c2cc3c(cc2NC(=O)c2ccc(OC)c(OC)c2)n(C)c(=O)n3C)CC1 -17.1%
CC1CCCCN1S(=O)(=O)c1ccc(F)c(C(=O)Nc2ccccc2C(F)(F)F)c1 (stereo unspecified) 6.95%
CCC(C)NC(=O)Cn1c(=O)n(CCCC(=O)NCc2ccc(C)cc2)c(=O)c2ccccc21 (stereo unspecified) -2.63%
Cc1cn2c(=O)cc(COc3cc(C)c(Cl)c(C)c3)nc2s1 -0.409%
CCOc1ccc(NC(=O)CN(c2ccccc2OCC)S(=O)(=O)c2ccccc2)cc1 19.9%
CCOc1cc2sc(N3CCC(C(=O)Nc4ccc(C(C)C)cc4)CC3)nc2cc1Br -4.23%
Cc1cc(=O)n(Cc2cccc(Br)c2)c2c1c(C)nn2-c1ccccc1 -13.8%
Cc1cc(Cl)ccc1NS(=O)(=O)c1ccc2c(c1)CCN2S(C)(=O)=O -1.19%
Cc1cccc(CNC(=O)Cc2csc3ccccc23)c1 -2.59%
COc1ccc(S(=O)(=O)N2CCN(Cc3nc4ccc(C)cc4o3)CC2)cc1OC 0%
COc1ccc(NC(=O)CC2C(=O)N(c3ccc(OC)cc3)C(=O)N2C2CCCCC2)cc1 (stereo unspecified) -0.312%
Cc1c(Cl)cccc1-n1c(SCC(=O)NCc2ccccc2)nc2n[nH]c(C)c2c1=N -3.16%
COc1cccc(C(=O)N2CC(=O)Nc3ccc(C)cc3C2c2ccc(F)cc2)c1OC (stereo unspecified) 0.314%
Cc1ccc(Nc2cc(=O)[nH]c(=O)[nH]2)cc1C -1.5%
Cc1ccc(C(=O)N2c3ncnn3C3(CCCCC3)[C@@H]3CCCC[C@@H]32)cc1 -7.04%
Cc1ccc2oc(=O)c(-c3nc4ccc(C)cc4[nH]3)cc2c1 -8.95%
COc1ccc(OC)c(CNC(=O)CCc2c(C)nc3c(c2C)c(=O)n(C)c(=O)n3C)c1 -0.347%
CCCOc1ccc(CNC(=O)C(C)n2nc(C)n3c(cc4occc43)c2=O)cc1 (stereo unspecified) -4.18%
COc1ccc(Cl)cc1NC(=O)CSc1nnc(C)n2c1cc1sccc12 -5.9%
Cc1oc2ncnc(N3CCCCC3)c2c1C(=O)Nc1cccc(Cl)c1C -0.703%
CCc1ccccc1NS(=O)(=O)c1ccc(-c2coc(C)n2)cc1 -19.6%
CCC1CCCCN1S(=O)(=O)c1ccc(NC(=O)c2nc(SC)ncc2Cl)cc1 (stereo unspecified) -4.31%
Cn1c2c(c(=O)n(C)c1=O)C(c1cc(Br)ccc1F)CC(=O)N2 (stereo unspecified) -21.4%
Cc1nc2cc(-c3ccccc3)nn2c(C)c1CCC(=O)NCCc1ccccc1 -3.04%
Cc1ccc2[nH]c(CSc3nnc(NC(=O)COc4ccccc4C)s3)cc(=O)c2c1 0%
COc1ccc(Nc2cc(C(=O)NCCCN(C)c3ccccc3)c3ccccc3n2)c(OC)c1 3.07%
Cc1cccc(C)c1NC(=O)c1c(C)oc2c1C1=NCCN1C=N2 -10.2%
COc1ccc(CC(=O)Nc2ccc(-c3nc4ccccc4s3)cc2Cl)cc1OC -12.3%
Cc1cccc(CCNC(=O)c2ccc3c(c2)nc2n3CCOC2)c1 -15.5%
COC(=O)c1ccc(NC(=O)c2cc(S(=O)(=O)N3CCC(C)CC3)cn2C)cc1 8.9%
CCOC(=O)c1ccc(Nc2nc(N)c3cc(OC)c(OC)cc3n2)cc1 -19.9%
CCn1cc(C(=O)NCCCN2CCC(C)CC2)c(=O)c2cc(S(=O)(=O)N(C)C3CCCCC3)ccc21 -9.53%
COc1ccc(C(=O)c2oc3ccccc3c2NC(=O)COc2cccc(C)c2)cc1 -0.163%
